Among the data in PubChem BioAssay AID463173 (ICCB-Longwood Screening Facility, Harvard Medical School, 2010) are survival values, retold here.

The campaign covered roughly 52,000 compounds. About 1,700 (3.3%) were called active. Cut-off read from the data, not from the text of the source: active = survival mostly below about 52% (no sharp cut-off); inactive = mostly above about 56%. The list shows a part of the results.

For the test, the system named is Wild type. The experiment in a line: growth inhibition of S. aureus wild type versus tarO mutant, primary screen, teichoic acid synthesis inhibitors, RN4220, OD600 (AID 463173). To be noted: S. aureus RN4220 wild type/DeltatarO growth, OD600, 18 h, active compounds read low, screened at 18.75 µg/mL (by protocol).
Take `Cc1ccc(-n2nnc(-c3nc(-c4cccs4)no3)c2N)c(C)c1`: the survival was inactive: 113%.

For `O=C(c1cc2nc(-c3ccco3)cc(C(F)(F)F)n2n1)N1CCCc2ccccc21`, the survival is inactive: 106%.

Consider `CC(C)c1ccc(OCC(=O)Nc2c(C(=O)c3ccc(F)cc3)oc3ccccc23)cc1`, for which the survival was inactive: 66%.

As to `COc1ccc(S(=O)(=O)c2c(C(=O)c3ccc(C)c(C)c3)cnc3ccc(F)cc23)cc1`, the survival was inactive: 96%.

`COc1ccccc1CNC(=O)Cn1ncn2c(cc3sccc32)c1=O`: the survival is inactive: 76%.

As for `Cc1cccc(C)c1NC(=O)CS(=O)CC(=O)Nc1ccc(F)c(F)c1` (stereo not given), the survival is inactive: 107%.

In the case of `Cc1ccc(Nc2c(-c3ccsc3)nc3c(C)cccn23)cc1`, the survival was active: -3%.

For the compound `O=C(NCC1CC1)C1C2C3C4CC5C3C5C4C12` (stereo not given), the survival is inactive: 113%.

With `COc1ccccc1NC(=O)CC(c1cc(OC)c(OC)c(OC)c1)N1Cc2ccccc2C1=O` (stereo not given), the survival is inactive: 77%.

In the case of `CCCCCSc1nc2sc3c(c2c(=O)n1-c1ccc(OC)cc1)CCN(C(C)=O)C3`, the survival is active: -21%.

In the case of `COc1ccc(S(=O)(=O)NCc2cccn2Cc2cccc(C)c2)cc1`, the survival is inactive: 66%.

Turning to `CCOC(=O)CSc1nnc2n(-c3ccccc3)c(=O)c3c4c(sc3n12)CC(C(C)(C)C)CC4` (stereo not given), the survival was inactive: 15%.

Take `COc1cc2c(cc1NC(=O)COc1ccc(Cl)cc1Br)oc1ccccc12`: the survival was inactive: 83%.

Consider `Cc1c(C)n(C)c2ccc(C(=O)NCc3cccc(F)c3)cc12`, for which the survival is inactive: 71%.

Regarding `CC(C)(C)NC(=O)CSc1nc2ccccc2c(=O)[nH]1`, the survival was inactive: 105%.

In the case of `COC(=O)c1cc2sc(Cl)cc2n1Cc1cc(C)ccc1C`, the survival is inactive: 35%.

For the compound `CCOc1ccc(CNC(=O)CCCc2cn(C)c3ccccc23)cc1OC`, the survival is inactive: 117%.

Turning to `Cc1cc(=O)c2cc(C(=O)Nc3ccccc3C)ccc2[nH]1`, the survival is inactive: 87%.

Take `CCOc1cc2sc(N3CCC(C(=O)Nc4cc(C)cc(C)c4)CC3)nc2cc1Br`: the survival is inactive: 123%.

Take `CC(=O)Nc1ccc(NC(=O)CC2C(=O)Nc3ccccc3N2C(C)=O)cc1` (stereo not given): the survival is inactive: 101%.

As for `COc1ccc(Cn2ccc3nc(C)c(C(=O)NCc4cccc(OC)c4)cc3c2=O)cc1`, the survival is inactive: 75%.

Regarding `Cc1ccc(-n2nc3c(=O)n(CC(=O)NCC(C)c4ccccc4)nc(C)c3c2C)cc1` (stereo not given), the survival is inactive: 89%.

For the compound `CCc1ccccc1NC(=O)Cn1c2ncccc2c(=O)n1-c1ccccc1`, the survival is inactive: 143%.

With `CN1C(=O)C(=C(C#N)C#N)c2cc(Br)ccc21`, the survival is inactive: 109%.

For `COC(=O)c1ccc(CSc2nnc3ccc4ccccc4n23)cc1`, the survival is inactive: 88%.

For `COc1ccccc1Cn1cc(C(=O)c2ccc(C)cc2)c(=O)c2cc3c(cc21)OCCO3`, the survival was inactive: 83%.

`CCn1cc2c(n1)-c1c(oc(C(=O)Nc3cccc(C(F)(F)F)c3)c1C)CC2`: the survival was inactive: 91%.

On to `COc1ccc(CCNC(=O)CCCCn2c(=O)c3ccccc3n(Cc3ccccc3Cl)c2=O)cc1OC`, for which the survival was inactive: 102%.

In the case of `O=C(CN1CCSc2ccccc21)N1CCN(c2ccc(F)cc2)CC1`, the survival is inactive: 63%.

Regarding `Cc1ccc(N(C)C(=O)c2cc(S(=O)(=O)N3CCOCC3)cn2C)cc1`, the survival was inactive: 84%.

For `CCCN(Cc1cccs1)C(=O)Nc1cc(OC)ccc1OC`, the survival is inactive: 81%.

For `CC(C)C(OC(=O)c1cccs1)C(=O)NC1CCCC1` (stereo not given), the survival is inactive: 101%.

For `COc1ccc(C(=O)Nc2ccc(C(=O)OCc3cc(=O)n4nc(C5CC5)sc4n3)cc2)cc1`, the survival is active: -3%.

With `COc1ccccc1-c1noc(CCCC(=O)Nc2cc(C)ccc2C)n1`, the survival was inactive: 87%.

With `CC(=O)c1ccc(NC(=O)CCOc2ccccc2)cc1`, the survival was inactive: 150%.

Regarding `Cc1ccc(-n2nc3c(N4CCC(C(=O)NCc5ccccc5Cl)CC4)nnc(C)c3c2C)cc1`, the survival is inactive: 135%.

For the compound `CCN(CC)C(=O)Nc1ccc2c(c1)N(Cc1ccccc1)C(=O)c1ccccc1S2`, the survival was inactive: 80%.

In the case of `COc1ccc(OC)c(S(=O)(=O)NCCc2csc(-c3cccc(F)c3)n2)c1`, the survival is inactive: 135%.

Take `CCOC(=O)c1c(C)[nH]c(C)c1S(=O)(=O)NCC(=O)N1CCN(c2ccccc2OC)CC1`: the survival is inactive: 73%.

As to `COc1cc(C(=O)NC(c2ccc(Cl)cc2)c2cc(Cl)c3cccnc3c2O)cc(OC)c1OC` (stereo not given), the survival is inactive: 87%.

On to `CCc1cccc(C)c1NC(=O)CN1CCCN(Cc2ccccc2Cl)S1(=O)=O`, for which the survival is active: 14%.

Consider `CCOc1ccccc1NC(=O)C(CC)n1c(C(=O)OC)cc2occc21` (stereo not given), for which the survival was active: 0%.

Turning to `Cc1csc(N/N=C\CCc2ccccc2)n1`, the survival was inactive: 110%.

In the case of `COc1cc(C2c3c(-c4ccccc4O)n[nH]c3C(=O)N2Cc2ccco2)ccc1OCC(C)C` (stereo not given), the survival is inactive: 43%.

For the compound `O=C(Cn1ncc2ccsc2c1=O)N1CCN(c2ccccc2F)CC1`, the survival is inactive: 73%.

`CCCCN(CC)CCNC(=O)C1CCCN(S(=O)(=O)c2cccc3nsnc23)C1` (stereo not given): the survival was inactive: 128%.

Take `COc1ccc(Nc2oc(/C=C/c3cccc(OC)c3)nc2C#N)cc1`: the survival was inactive: 115%.

Turning to `CCCn1c(=NC(=O)c2cc3ccccc3o2)c(C(=O)OCC)cc2c(=O)n3ccccc3nc21`, the survival is inactive: 66%.

On to `COc1ccc(N(C(=O)/C=C\C(=O)Nc2ccc(C)cc2)C(C(=O)NCc2ccco2)c2ccc(C)cc2)cc1` (stereo not given), for which the survival was inactive: 63%.

Consider `Cc1c(C(=O)N2CCCCCC2)c(S(=O)(=O)N(Cc2ccccc2)C(C)(C)C)c(C)n1C`, for which the survival is inactive: 73%.

With `O=S(=O)(c1ccc(-n2cnnn2)cc1)N1CCN(c2cccc(Cl)c2)CC1`, the survival is inactive: 99%.

Take `NC1CCC(c2ccccc2)CC1` (stereo not given): the survival was inactive: 98%.

`O=c1cc(-c2ccccc2)n2c(SCc3c(F)cccc3Cl)nnc2[nH]1`: the survival was inactive: 74%.

Regarding `Cc1ccc(-n2c(=O)c3cccnc3n2CC(=O)Nc2cc(Cl)ccc2C)cc1`, the survival is inactive: 124%.

On to `Cc1ccc(C)c(CN2C(=O)c3ccccc3S(=O)c3ccc(C(=O)N4CCN(c5cccc(Cl)c5)CC4)cc32)c1` (stereo not given), for which the survival was inactive: 140%.

In the case of `Cc1ccc(NC(=O)Cn2c(=O)n(CCCCC(=O)NCc3ccccc3Cl)c(=O)c3ccccc32)cc1`, the survival was inactive: 94%.

As to `COc1ccccc1OCC(=O)NCC(c1ccc(Cl)cc1)N1CCOCC1` (stereo not given), the survival is inactive: 71%.

For `O=C(Nc1ccccc1)c1ccc(S(=O)(=O)N2CCCC2)cc1`, the survival was inactive: 100%.

Take `Cc1ccc(NC(=O)C(=O)NCc2ccco2)cc1`: the survival was inactive: 83%.

For the compound `Cc1ccc(NC(=O)CN(C)S(=O)(=O)c2cnc[nH]2)cc1`, the survival was inactive: 71%.

Take `N=C(N)N1CCN(CC(O)COc2ccccc2)CC1` (stereo not given): the survival is inactive: 106%.

`CC(C)CC(=O)NC1(C(F)(F)F)C(=O)Nc2c1c(=O)[nH]c(=O)n2-c1ccccc1` (stereo not given): the survival is inactive: 149%.

Regarding `CCCc1nn2c(=O)cc(COc3ccc(/C=C(\C#N)C(=O)Nc4ccccc4)cc3)nc2s1`, the survival is inactive: 80%.

`Cc1cc2ncn(S(=O)(=O)c3ccc(S(N)(=O)=O)cc3)c2cc1C`: the survival was inactive: 105%.

For the compound `COc1ccc(C(CC(=O)NCc2ccccc2Cl)N2Cc3ccccc3C2=O)cc1OC` (stereo not given), the survival was inactive: 73%.

`Cn1c(-n2cccc2)c(-c2c(-c3ccccc3)[nH]c3c2c(=O)n(C)c(=O)n3C)c(=O)n(C)c1=O`: the survival is inactive: 109%.

As for `CCCCOC(=O)c1ccc(NC(=O)CSc2nc3c(c(=O)[nH]2)CCCC3)cc1`, the survival is inactive: 83%.

Consider `Cc1ccc(-c2nnc(C3CCN(S(=O)(=O)c4ccc(C)c(C)c4)CC3)o2)cc1`, for which the survival was inactive: 108%.

Regarding `CCOc1ccccc1NC(=O)CN1C(=O)CC(c2ccc(OC)c(OC)c2)Sc2ccccc21` (stereo not given), the survival is inactive: 81%.

With `Cc1ccccc1CN1C(=O)c2ccccc2Sc2ccc(C(=O)NC(C)c3ccccc3)cc21` (stereo not given), the survival is inactive: 81%.

On to `COc1ccc(NC(=O)CC2C(=O)N(c3ccc(F)cc3)C(=O)N2Cc2ccco2)cc1` (stereo not given), for which the survival was inactive: 90%.

Turning to `CCN1CCOC(=O)C1CC(=O)Nc1cc(C)cc(C)c1` (stereo not given), the survival was inactive: 122%.

For `O=C(NCc1ccc(F)cc1)c1cc2c(=O)n3ccccc3nc2s1`, the survival is inactive: 155%.

On to `Cc1ccc(CNC(=O)Cn2c(=O)n(-c3ccc(Cl)cc3)c(=O)c3c(C)c(C)sc32)cc1`, for which the survival is inactive: 72%.

For the compound `COc1ccc(OC)c(/C=C(/C#N)c2nc(-c3ccc(-c4ccccc4)cc3)cs2)c1`, the survival was inactive: 71%.

With `O=C(NCc1ccccc1)c1nn(-c2ccccc2)nc1CO`, the survival was inactive: 120%.

With `Cc1cc(C)cc(NS(=O)(=O)c2ccc3[nH]cc(C(=O)N(C)Cc4ccccc4)c(=O)c3c2)c1`, the survival is inactive: 111%.

On to `Cc1ccc(N2C(=O)CCSC23C(=O)N(Cc2ccccc2)c2ccccc23)cc1F` (stereo not given), for which the survival was inactive: 68%.

Consider `COC(=O)c1ccccc1NC(=O)c1ccc2c(c1)CCN2S(C)(=O)=O`, for which the survival was inactive: 110%.

On to `COc1cc(Nc2ncc3c(n2)CCN(Cc2cc(Br)cs2)C3)cc(OC)c1`, for which the survival is inactive: 105%.

In the case of `Cc1cc(Nc2ccc(F)cc2)n2c(nc3ccccc32)c1C#N`, the survival was inactive: 68%.

For `Cc1ccc(CSc2nc3c([nH]c4ccccc43)c(=O)n2C)cc1`, the survival was inactive: 71%.

On to `Cc1c(-c2nc(-c3ccccc3)no2)nnn1-c1cccc(C(F)(F)F)c1`, for which the survival was inactive: 71%.

As to `CCCCNc1nc2c(S(=O)(=O)c3ccc(C)c(C)c3)nnn2c2ccsc12`, the survival is inactive: 89%.

Consider `N#CCCCSc1nnc(Cc2ccc3c(c2)OCO3)o1`, for which the survival was inactive: 107%.

As to `Cc1nn2c(-c3ccco3)ccnc2c1-c1ccc(F)cc1`, the survival is inactive: 75%.

As for `COc1ccccc1CNC(=O)c1ccc2c(c1)nc(C)n2-c1ccccc1OC`, the survival is inactive: 98%.

`COc1ccc(/C=C(\NC(=O)c2ccccc2)C(N)=O)cc1`: the survival is inactive: 111%.

For `COc1ccc(NC(=O)c2cccn2-c2nnc(N3CCCCC3)s2)cc1Cl`, the survival was inactive: 69%.

Turning to `COc1ccccc1NC(=O)CN1CCCN(S(=O)(=O)c2ccc(Br)cc2)CC1`, the survival is inactive: 59%.
